# Experimental data taken from PubChem BioAssay (NCATS).
# Several values for one entry are separate records, joined by “and”; a condition that tells them apart may be missing. Equal values may be shown once. Inconclusive results, whose numbers are uncertain, are shown with a selection of clear calls. For some assays here: Where the call is inconclusive, the potency comes from a doubtful curve fit. Activity calls are given as the source filed them. Unless noted, calls come from the whole dose curve; as a rule, active = well fitted curve in the direction sought with a large enough effect; inconclusive = small, poorly fitted or top-dose-only effect, or another doubt; inactive = no such curve, though single readings can be large; an effect the other way counts as inactive or inconclusive.
# Tests used:
# [1] = qHTS of pediatric cancer cell lines to identify multiple opportunities for drug repurposing: Primary screen for DAOY cells (AID 1347090); settings: DAOY medulloblastoma viability, CellTiter-Glo luminescence, 48 h; activity change, negative = cytotoxic: at 46 µM (top of the series); note: nearly all actives have a fitted effect of over 55% in size; note: potency is the fitted concentration of half-maximal effect
# How it was run: (§1)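 Viability measured as metabolically active cells via CellTiter-Glo luminescence following 48 hours of compound exposure, 11-point dilutions in confirmatory testing. 500-1,000 cells/well plated 5 hours before dosing; controls were DMSO and 2.3 µM bortezomib.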
# [2] = qHTS of pediatric cancer cell lines to identify multiple opportunities for drug repurposing: Primary screen for LAN-5 cells (AID 1347100); note: potency is the fitted concentration of half-maximal effect
# How it was run: (§2)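 Viability after 48 h compound treatment at 37C, 500-1,000 cells/well, read as ATP luminescence with CellTiter-Glo. Primary screens used 11-point (MIPE, 0.78 nM-46 µM) or 8-point (NPC, 0.59 nM-46 µM) final concentrations; follow-up screens used 11-point dilutions.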
# [3] = qHTS of pediatric cancer cell lines to identify multiple opportunities for drug repurposing: Primary screen for BT-12 cells (AID 1347101); note: potency is the fitted concentration of half-maximal effect; nearly all actives have a fitted effect of over 25% in size
# How it was run: (§3)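 Cells (500-1,000/well) rested 5 h, then received compounds for 48 h; metabolically active cells were measured by CellTiter-Glo luminescence. Final concentrations spanned up to 46 µM (MIPE, 11-point) or 0.59 nM-46 µM (NPC, 8-point) in primary screens, 11-point in follow-ups.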
# [4] = qHTS of pediatric cancer cell lines to identify multiple opportunities for drug repurposing: Primary screen for Rh18 cells (AID 1347102); note: potency is the fitted concentration of half-maximal effect; nearly all actives have a fitted effect of over 65% in size
# How it was run: as §2
# [5] = qHTS of pediatric cancer cell lines to identify multiple opportunities for drug repurposing: Primary screen for Rh30 cells (AID 1347107); note: potency is the fitted concentration of half-maximal effect; nearly all actives have a fitted effect of over 75% in size
# How it was run: as §2
# [6] = qHTS of pediatric cancer cell lines to identify multiple opportunities for drug repurposing: Primary screen for Rh41 cells (AID 1347108); note: potency is the fitted concentration of half-maximal effect; nearly all actives have a fitted effect of over 70% in size
# How it was run: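 Viability was measured as metabolically active cells after 48 hours of treatment, read by CellTiter-Glo luminescence. Compounds were tested at multiple final concentrations, giving concentration-response curves.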
# [7] = test system: UISO; assay: qHTS assay to identify novel small-molecules to repurpose for Merkel cell carcinoma treatment (AID 1296009); settings: MCC and control cell lines, CellTiter-Glo viability, 72 h; series mostly up to 46 µM; note: potency is the fitted concentration of half-maximal effect; nearly all actives have a fitted effect of over 60% in size
# How it was run: (§4)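 CellTiter-Glo luminescence after 72 hr compound exposure at 37 degree celsius gave cell viability. Libraries NPC and MIPE were run as 8- and 11-point dose responses; RLUs normalized to DMSO (negative) and no-cell (cytotoxicity) controls.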
# [8] = Primary fluorescence-based thiol-reactive (MSTI) qHTS assay for identification of artifact compounds. (AID 1845221);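 note: potency is the fitted concentration of half-maximal effect; thiol-reactive compounds lower the probe fluorescence signal; nearly all actives have a fitted effect of over 65% in size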
# How it was run: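 Thiol-reactive compounds detected by quenching of 4 uM MSTI fluorescence (525/598 nm) after 1 h room-temperature dark incubation in PBS pH 7.4, 2% DMSO. qHTS titration; percent inhibition Hill-fitted against Acetyl-MSTI/MSTI controls.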
# [9] = qHTS of pediatric cancer cell lines to identify multiple opportunities for drug repurposing: Primary screen for SJ-GBM2 cells (AID 1347091); note: potency is the fitted concentration of half-maximal effect
# How it was run: as §1
# [10] = qHTS of pediatric cancer cell lines to identify multiple opportunities for drug repurposing: Primary screen for U-2 OS cells (AID 1347096); note: potency is the fitted concentration of half-maximal effect; nearly all actives have a fitted effect of over 50% in size
# How it was run: as §2
# [11] = qHTS of pediatric cancer cell lines to identify multiple opportunities for drug repurposing: Primary screen for OHS-50 cells (AID 1347103); note: potency is the fitted concentration of half-maximal effect; nearly all actives have a fitted effect of over 40% in size
# How it was run: as §3
# [12] = qHTS of pediatric cancer cell lines to identify multiple opportunities for drug repurposing: Primary screen for SK-N-SH cells (AID 1347098); settings: SK-N-SH viability, CellTiter-Glo luminescence, 48 h; activity change, negative = cytotoxic: at 57 µM (top of the series); note: potency is the fitted concentration of half-maximal effect; nearly all actives have a fitted effect of over 65% in size
# How it was run: as §3
# [13] = target: Glutathione peroxidase 1 (Homo sapiens) (UniProt P07203); assay: Primary qHTS Assay for Inhibitors of Recombinant Selenoprotein Glutathione Peroxidase 1 (GPX1) (AID 1845191); settings: activity, negative = inhibition: at 48.8 µM (top of the series); note: nearly all actives have a fitted effect of over 65% in size; note: potency is the fitted concentration of half-maximal effect
# Chain of UniProt P07203 (P07203 whole entry, looked up): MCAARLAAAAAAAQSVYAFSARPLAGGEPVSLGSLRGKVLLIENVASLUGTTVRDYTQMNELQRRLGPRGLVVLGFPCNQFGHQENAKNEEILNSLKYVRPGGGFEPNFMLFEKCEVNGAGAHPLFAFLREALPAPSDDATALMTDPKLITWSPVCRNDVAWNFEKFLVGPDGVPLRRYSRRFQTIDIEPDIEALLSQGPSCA
# How it was run: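 GR-coupled readout: NADPH consumption tracked by fluorescence, ex 340/em 450 nm, at t=0 and after 15 min at RT. Final mix 10 nM GPX1, 1 mM GSH, 0.5 mM CHP, 0.5 mM NADPH, 100 nM GR, 0.01% BSA, following 30 min enzyme–compound preincubation.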
# [14] = test system: WaGa; assay: qHTS assay to identify novel small-molecules to repurpose for Merkel cell carcinoma treatment (AID 1296009); settings: MCC and control cell lines, CellTiter-Glo viability, 72 h; series mostly up to 46 µM; note: potency is the fitted concentration of half-maximal effect; nearly all actives have a fitted effect of over 60% in size
# How it was run: as §4
# [15] = target: Cytochrome P450 2C9 (Homo sapiens) (UniProt P11712); assay: Cytochrome P450 family 2 subfamily C member 9 (CYP2C9) small molecule antagonists: luciferase biochemical (cell-free) qHTS assay (AID 1645842; active = well fitted curve in the direction sought with a large enough effect in the repeat runs; inconclusive = weak or mixed curves; inactive = no such curve, though single readings can be large; an effect the other way counts as inactive or inconclusive; note: potency is the fitted concentration of half-maximal effect; nearly all actives have a fitted effect of over 55% in size)
# Chain of UniProt P11712 (P11712 whole entry, looked up): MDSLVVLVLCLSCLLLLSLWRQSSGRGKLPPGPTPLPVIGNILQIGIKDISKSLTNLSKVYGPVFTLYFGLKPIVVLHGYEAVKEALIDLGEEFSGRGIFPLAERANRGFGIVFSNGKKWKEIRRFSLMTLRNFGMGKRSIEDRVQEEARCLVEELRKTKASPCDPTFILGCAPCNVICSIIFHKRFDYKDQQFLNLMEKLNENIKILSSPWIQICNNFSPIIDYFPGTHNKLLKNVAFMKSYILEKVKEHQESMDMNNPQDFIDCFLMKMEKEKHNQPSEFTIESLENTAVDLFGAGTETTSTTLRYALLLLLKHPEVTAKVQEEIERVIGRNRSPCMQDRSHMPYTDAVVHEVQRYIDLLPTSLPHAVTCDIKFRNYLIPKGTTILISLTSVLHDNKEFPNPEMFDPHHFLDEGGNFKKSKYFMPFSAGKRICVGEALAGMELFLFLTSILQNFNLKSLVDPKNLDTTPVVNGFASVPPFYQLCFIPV
# How it was run: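 P450-Glo CYP2C9 system: proluciferin substrate with enzyme in mix containing 0.4% BSA, 10 min at room temperature, then NADPH regeneration solution added and incubated 1 h at 37C. Detection reagent stopped reaction; luminescence read after 20 min as RLU.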
# [16] = target: Phospholipid hydroperoxide glutathione peroxidase GPX4 (Homo sapiens) (UniProt P36969); assay: Primary qHTS Assay for Inhibitors of Recombinant Selenoprotein Glutathione Peroxidase 4 (GPX4) (AID 1845192)
# Chain of UniProt P36969 (P36969 whole entry, looked up): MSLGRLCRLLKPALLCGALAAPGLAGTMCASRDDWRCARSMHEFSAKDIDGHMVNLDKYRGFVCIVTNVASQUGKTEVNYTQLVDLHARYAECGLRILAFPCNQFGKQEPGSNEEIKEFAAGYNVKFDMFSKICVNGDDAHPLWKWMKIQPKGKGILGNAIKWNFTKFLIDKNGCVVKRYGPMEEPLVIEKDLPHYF
# How it was run: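 Steps: GPX4 plus compound, 30 min RT; add GR/GSH/NADPH master mix; start with cumene hydroperoxide; read 340/450 nm fluorescence at 0 and 15 min. Finals were 200 nM GPX4, 1 mM GSH, 0.5 mM CHP, 0.5 mM NADPH, 100 nM GR.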
# [17] = qHTS to identify inhibitors of the type 1 interferon - major histocompatibility complex class I in skeletal muscle: primary screen against the NCATS Mechanism Interrogation Plate v5.0 (MIPE) Libary (AID 1347411); settings: iHSKM cells + IFN-b, HiBiT-tagged MHC-I luminescence, 24 h; series mostly up to 45.8 µM
# How it was run: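 IFN-beta-driven (4 ng/ml) HLA-B-HiBit expression in CRISPR-tagged C25cl48 myoblasts; compounds 11-pt, 1:3, max 46 uM, 24 hr exposure; lytic NanoLuc complementation luminescence.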
# [18] = target: Cytochrome P450 2D6 (Homo sapiens) (UniProt P10635); assay: Cytochrome P450 family 2 subfamily D member 6 (CYP2D6) small molecule antagonists: luciferase biochemical (cell-free) qHTS assay (AID 1645840; active = well fitted curve in the direction sought with a large enough effect in the repeat runs; inconclusive = weak or mixed curves; inactive = no such curve, though single readings can be large; an effect the other way counts as inactive or inconclusive; note: nearly all actives have a fitted effect of over 55% in size; note: potency is the fitted concentration of half-maximal effect)
# Chain of UniProt P10635 (P10635 whole entry, looked up): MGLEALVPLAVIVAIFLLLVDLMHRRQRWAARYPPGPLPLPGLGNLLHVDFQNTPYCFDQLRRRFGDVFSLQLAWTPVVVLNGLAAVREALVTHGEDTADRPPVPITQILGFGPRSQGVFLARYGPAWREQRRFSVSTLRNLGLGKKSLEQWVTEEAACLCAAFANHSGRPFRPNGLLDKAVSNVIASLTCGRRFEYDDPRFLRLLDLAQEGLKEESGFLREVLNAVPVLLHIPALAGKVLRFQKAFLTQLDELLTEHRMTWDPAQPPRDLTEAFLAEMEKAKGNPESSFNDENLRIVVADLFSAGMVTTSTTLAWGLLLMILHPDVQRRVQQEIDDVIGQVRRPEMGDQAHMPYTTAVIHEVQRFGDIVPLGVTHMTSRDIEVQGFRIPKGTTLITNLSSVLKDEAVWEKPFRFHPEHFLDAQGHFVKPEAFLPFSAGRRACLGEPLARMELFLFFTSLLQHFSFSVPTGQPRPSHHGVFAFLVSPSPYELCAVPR
# How it was run: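 P450-Glo CYP2D6 system: proluciferin substrate converted by enzyme to luciferin, read by luminescence proportional to activity. Enzyme-substrate mix with compound 10 min at room temperature, then NADPH regeneration 1 h before detection reagent.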
# [19] = Primary redox qHTS assay for identification of artifact compounds. (AID 1845223)
# How it was run: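 Redox-cycling detection via DTT (250 uM final) oxidation coupled to Amplex Red (25 uM)/HRP (250 mU/mL) in HBSS. 15 min preincubation plus 30 min after DTT, room temperature. Ex/Em 525/598 nm; 4-parameter Hill fit against DMSO and 10 uM DA3003.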
# Tags give direction and shape of the fitted curve.
smiles,measurement,setting,value
CC(=O)NCC(=O)N1[C@H]2CC[C@H]1c1cc(Nc3ncc(C(F)(F)F)c(NC4CCC4)n3)ccc12,Potency,[1],active: 18.7 µM
same,Potency,[2],active: 33.2 nM
same,Potency,[3],active: 24.3 µM
same,Potency,[4],"inconclusive: 1.18 µM [cytotoxic, full curve]"
same,Potency,[5],"inconclusive: 1.18 µM [cytotoxic, full curve]"
same,Potency,[6],active: 1.48 µM
same,Potency,[7],active: 7.43 µM
CN(C)CCCn1cc(C2=C(c3c[nH]c4ccccc34)C(=O)NC2=O)c2ccccc21,Potency,[8],active: 0.423 µM
C=CCNc1c(O)cc2c(O)c1C[C@@H](C)C[C@H](OC)[C@@H](O)[C@@H](C)C=C(C)[C@H](OC(N)=O)[C@@H](OC)C=CC=C(C)C(=O)N2,Potency,[1],"inconclusive: 2.35 µM [cytotoxic, full curve]"
same,Potency,[9],active: 526 nM
same,Potency,[10],"inconclusive: 0.296 µM [cytotoxic, full curve, poor fit]"
same,Potency,[2],active: 1870 nM
same,Potency,[3],"inconclusive: 1.22 µM [cytotoxic, full curve]"
same,Potency,[4],active: 0.935 µM
same,Potency,[11],"inconclusive: 0.863 µM [cytotoxic, full curve]"
same,Potency,[6],active: 2.35 µM
same,Potency,[7],active: 2.35 µM
Cn1cc(-c2cnn3c(N)c(Br)c([C@H]4CCCNC4)nc23)cn1,Potency,[1],"inconclusive: 1.48 µM [cytotoxic, full curve]"
same,Potency,[9],active: 235 nM
same,Potency,[10],"inconclusive: 1.48 µM [cytotoxic, full curve]"
same,Potency,[12],active: 17.1 µM
same,Potency,[3],"inconclusive: 0.485 µM [cytotoxic, full curve]"
same,Potency,[4],"inconclusive: 4.18 µM [cytotoxic, full curve]"
same,Potency,[13],inactive
same,Potency,[7],"inconclusive: 2.35 µM [inhibitor, full curve]"
same,Potency,[14],active: 1.32 µM
CC(=O)Nc1nc(C)c(-c2nc(N3CCCC(O)C3)no2)s1 (configuration not stated),Potency,[15],"inconclusive: 16.9 µM [inhibitor, partial curve]"
same,Potency,[13],"inconclusive: 32.1 µM [inhibitor, single point]"
same,Potency,[16],"inconclusive: 8.06 µM [inhibitor, partial curve]"
CCn1c(=O)c(-c2ccc(-c3cncs3)cc2Cl)cc2cnc(Nc3ccc(N4CCN(C)CC4)cc3)nc21,Potency,[8],"inconclusive: 0.597 µM [inhibitor, partial curve]"
Cc1c(NC(=O)OC[C@@H]2COCCN2)cn2ncnc(Nc3ccc4c(cnn4Cc4cccc(F)c4)c3)c12,Potency,[1],active: 0.0743 µM
same,Potency,[9],"inconclusive: 33200 nM [cytotoxic, single point]"
same,Potency,[10],"inconclusive: 18.7 µM [cytotoxic, partial curve]"
same,Potency,[3],active: 24.3 µM
same,Potency,[4],"inconclusive: 33.2 µM [cytotoxic, single point]"
same,Potency,[11],"inconclusive: 34.3 µM [cytotoxic, single point]"
same,Potency,[5],"inconclusive: 5.9 µM [cytotoxic, partial curve, poor fit]"
same,Potency,[6],"inconclusive: 1.87 µM [cytotoxic, full curve]"
same,Potency,[16],"inconclusive: 20.2 µM [inhibitor, partial curve, poor fit]"
same,Potency,[7],"inconclusive: 29.6 µM [inhibitor, single point]"
C=C(C)C(=O)O[C@H]1[C@H]2C(=C)C(=O)O[C@@H]2C[C@@H](C)/C=C\C(=O)[C@](C)(O)[C@@H]1OC(C)=O,Potency,[8],"inconclusive: 10.3 µM [inhibitor, partial curve]"
CCOc1cc(C(C)(C)C)ccc1C1=N[C@@](C)(c2ccc(Cl)cc2)[C@@](C)(c2ccc(Cl)cc2)N1C(=O)N1CCN(CC(=O)N2CCOCC2)CC1,Potency,[17],"inconclusive: 28.8 µM [inhibitor, single point]"
same,Potency,[18],"inconclusive: 9.52 µM [inhibitor, partial curve]"
COc1cc(N2CCN(C(C)=O)CC2)ccc1Nc1ncc(Cl)c(Nc2ccc(N3CCN(C(C)=O)CC3)cc2OC)n1,Potency,[18],"inconclusive: 30.1 µM [inhibitor, single point]"
same,Potency,[16],"inconclusive: 0.064 µM [inhibitor, full curve, poor fit]"
same,Potency,[8],"inconclusive: 1.06 µM [inhibitor, full curve]"
Nc1nc(Cl)nc2c1ncn2C1OC(CO)C(O)C1F (configuration not stated),Potency,[19],inactive
Cc1cc(C)nc(SCC(=O)Nc2ncc(Cc3cccc4ccccc34)s2)n1,Potency,[18],inactive
FC(F)(F)c1ccc(CNc2ccc(Cc3c[nH]c4ncccc34)cn2)cc1,Potency,[17],"inconclusive: 16.5 µM [inhibitor, partial curve]"
same,Potency,[15],active: 1.2 µM
C=C1C(=O)O[C@@H]2[C@H]1[C@H](O)C[C@]1(C)[C@@H](O)CC=C(C)[C@@H]21,Potency,[13],inactive
OCCN1CCN(CC/C=C2/c3ccccc3Sc3ccc(C(F)(F)F)cc32)CC1,Potency,[1],inactive
same,Potency,[10],"inconclusive: 21.1 µM [cytotoxic, single point]"
same,Potency,[3],"inconclusive: 24.6 µM [cytotoxic, single point]"
same,Potency,[4],"inconclusive: 23.7 µM [cytotoxic, single point]"
same,Potency,[15],"inconclusive: 38.9 µM [inhibitor, single point]"
same,Potency,[13],"inconclusive: 18 µM [inhibitor, partial curve]"
same,Potency,[14],"inconclusive: 26.6 µM [inhibitor, single point]"
Cc1cccc(C)c1-n1c(=O)c2cnc(Nc3ccc(N4CCN(C)CC4)cc3)nc2n2c3ccccc3nc12,Potency,[18],inactive
same,Potency,[8],"inconclusive: 3.36 µM [inhibitor, full curve]"
O=C(Nc1ccc2[nH]nc(-c3ccncc3)c2c1)[C@@H]1CCN(CC(=O)N2CCN(c3ccc(-c4ncccn4)cc3)CC2)C1,Potency,[18],"inconclusive: 8.49 µM [inhibitor, partial curve] and inconclusive: 9.52 µM [inhibitor, partial curve]"
O=S(=O)(NCc1cccc2ccccc12)c1cc(Cl)c(Oc2cccc(N3CCNCC3)c2)s1,Potency,[18],active: 8.49 µM
